The results in this text go back to PMC8886574, “Synthesis, physicochemical characterization and neuroprotective evaluation of novel 1-hydroxypyrazin-2(1H)-one iron chelators in an in vitro cell model of Parkinson's disease” (Dalton Transactions (Cambridge, England : 2003), 2022).

This data set in a line: Protonation constants (log K) of ligands by UV-visible spectrophotometric titration vs. pH. To be noted: Solvent MeOH/H2O (80/20 w/w), I = 0.1 M (NaClO4). Format: physicochemical. The procedure:
For ligand 10a, protonation constants of the ligand were studied in both media while complexation studies were carried out only in the mixed solvent for solubility reasons.
Consider `Cc1nc(Cc2ccc(O)cc2)c(=O)n(O)c1C` [Ligand 6d, 1-Hydroxy-3-(4-hydroxybenzyl)-5,6-dimethylpyrazin-2(1H)-one], for which the “log K LH” value is on record as 10.57(1).

`O=c1cncc(-c2ccccc2)n1O` [Ligand 10a, 1-Hydroxy-6-phenylpyrazin-2(1H)-one]: the “log K LH” value is on record as 4.24(2).

As to `Cc1nc(Cc2ccccc2)c(=O)n(O)c1C` [Ligand 6c, 1-Hydroxy-3-benzyl-5,6-dimethylpyrazin-2(1H)-one], the “log K LH” value is 5.53(2).
